Hit rate of the full screen: of about 310,000 compounds, about 14,000 (4.5%) showed an effect of 50% or more. Effects have a minus sign here. Some of the results follow.
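Further: peak tail current of the secondary pulse compared with the same well before compound.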

The target of this experiment is human ether-à-go-go-related gene (hERG) potassium channel (human, UniProt Q12809). In words: primary screen, population patch clamp on CHO cells stably expressing hERG.
Sequence of human ether-à-go-go-related gene (hERG) potassium channel (Q12809 whole entry, looked up): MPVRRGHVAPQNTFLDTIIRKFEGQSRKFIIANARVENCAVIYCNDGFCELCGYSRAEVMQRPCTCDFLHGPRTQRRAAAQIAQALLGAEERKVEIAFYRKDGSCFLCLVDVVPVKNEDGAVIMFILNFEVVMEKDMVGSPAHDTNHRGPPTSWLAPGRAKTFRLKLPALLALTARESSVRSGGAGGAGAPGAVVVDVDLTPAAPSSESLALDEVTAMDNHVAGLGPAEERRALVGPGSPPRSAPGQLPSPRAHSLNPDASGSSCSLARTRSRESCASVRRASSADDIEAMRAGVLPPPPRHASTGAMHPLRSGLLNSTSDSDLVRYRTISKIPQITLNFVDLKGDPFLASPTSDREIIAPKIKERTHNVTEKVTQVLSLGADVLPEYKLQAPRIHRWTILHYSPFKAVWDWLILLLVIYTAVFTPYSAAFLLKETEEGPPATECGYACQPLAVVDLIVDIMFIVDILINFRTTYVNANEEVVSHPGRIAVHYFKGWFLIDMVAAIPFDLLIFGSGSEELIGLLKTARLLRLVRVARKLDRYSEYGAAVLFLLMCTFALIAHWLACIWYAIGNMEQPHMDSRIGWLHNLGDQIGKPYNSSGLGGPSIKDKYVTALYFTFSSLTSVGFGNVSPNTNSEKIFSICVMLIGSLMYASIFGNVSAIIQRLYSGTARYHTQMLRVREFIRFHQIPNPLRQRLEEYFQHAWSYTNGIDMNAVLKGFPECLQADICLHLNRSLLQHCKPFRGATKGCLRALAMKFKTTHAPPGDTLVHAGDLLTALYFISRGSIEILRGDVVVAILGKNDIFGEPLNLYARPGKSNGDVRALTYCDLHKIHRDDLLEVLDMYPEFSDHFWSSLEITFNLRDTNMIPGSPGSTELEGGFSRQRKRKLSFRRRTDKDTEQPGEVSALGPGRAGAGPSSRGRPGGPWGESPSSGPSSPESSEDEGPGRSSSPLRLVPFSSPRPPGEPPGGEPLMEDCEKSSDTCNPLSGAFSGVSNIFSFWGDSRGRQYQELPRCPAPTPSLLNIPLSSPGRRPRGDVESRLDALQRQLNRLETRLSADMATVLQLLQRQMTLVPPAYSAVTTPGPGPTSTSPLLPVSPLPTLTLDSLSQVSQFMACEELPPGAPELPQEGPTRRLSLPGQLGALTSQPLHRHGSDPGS
On to `C/C=C/C=C/C(=O)N1CC2(CC(c3cccc(NC(=O)CCCCC)c3)=NO2)C[C@H]1C(N)=O` (stereo partly shown), for which the “hERG current change (%, negative = inhibition) at 10uM” value is listed as -37.4%.

For `Cc1cccc(/C=C/c2onc(C)c2S(=O)(=O)N2CCC(C(=O)N3CCC(C)CC3)CC2)c1`, the “hERG current change (%, negative = inhibition) at 10uM” value came to 10.9%.

As for `Br.Oc1ccc(C2CNCc3sccc32)cc1O` (stereo not shown), the “hERG current change (%, negative = inhibition) at 10uM” value is -5.06%.

Turning to `CCSc1nc2sc3c(c2c(=O)n1CC)CC(C)(C)OC3`, the “hERG current change (%, negative = inhibition) at 10uM” value is -1.63%.

As for `CSc1cccc(N2CC(C(=O)N(Cc3nnc(-c4ccccc4Cl)o3)C3CC3)CC2=O)c1` (stereo not shown), the “hERG current change (%, negative = inhibition) at 10uM” value is on record as -55.5%.

With `C/C(CC(=O)Nc1ccc2c(c1)OCCO2)=N\NC(=O)c1ccccn1`, the “hERG current change (%, negative = inhibition) at 10uM” value was determined as 32.8%.

For the molecule `CCOc1ccc(N2CC(C(=O)NNC(=O)c3ccc(Br)cc3)CC2=O)cc1` (stereo not shown), the “hERG current change (%, negative = inhibition) at 10uM” value is reported as -1.21%.

As for `CN(C(=O)CSc1nc2c(c(=O)[nH]1)CCCC2)C1CCCCC1`, the “hERG current change (%, negative = inhibition) at 10uM” value is listed as -9.01%.

`CC(=O)c1ccc(OCCCC(=O)NCC(c2ccco2)N(C)C)cc1` (stereo not shown): the “hERG current change (%, negative = inhibition) at 10uM” value was -28.1%.

With `CCC(=O)c1ccc(N2CCN(C(=O)Cc3ccccc3)CC2)c(F)c1`, the “hERG current change (%, negative = inhibition) at 10uM” value is on record as -36.5%.

In the case of `CCc1nnc(NS(=O)(=O)c2ccc(NC(=O)c3cccc4ccccc34)cc2)s1`, the “hERG current change (%, negative = inhibition) at 10uM” value amounted to 20.4%.

For the molecule `Cc1cnc(C(=O)OCc2csc(CC(=O)Nc3ccccc3C)n2)cn1`, the “hERG current change (%, negative = inhibition) at 10uM” value is 1.21%.

With `CCc1ccc(/C=N/NC(=O)c2c[nH]c3ccccc23)s1`, the “hERG current change (%, negative = inhibition) at 10uM” value is -19.1%.

As for `O=C(NCC(c1ccco1)N1CCc2ccccc2C1)C(=O)Nc1ccccc1F` (stereo not shown), the “hERG current change (%, negative = inhibition) at 10uM” value was found to be 8.09%.

For `CCCCN(C)S(=O)(=O)c1cc(Br)cc2c1N(C(=O)C1CC1)CC2`, the “hERG current change (%, negative = inhibition) at 10uM” value is -51.6%.

Regarding `Cc1cc(C)c(O)c(C2(O)C(=O)c3ccccc3C2=O)c1`, the “hERG current change (%, negative = inhibition) at 10uM” value is 6.77%.

In the case of `O=C(Cc1ccccc1F)Nc1ccc2c(c1)CCC2`, the “hERG current change (%, negative = inhibition) at 10uM” value is on record as 6.59%.

Turning to `O=C(CN1CCOCC1)Nc1ccc(NC(=O)c2ccccc2F)cc1`, the “hERG current change (%, negative = inhibition) at 10uM” value came out at 10.7%.

With `O=C1CC(c2ccccc2)CN1C(=O)c1cccc([N+](=O)[O-])c1` (stereo not shown), the “hERG current change (%, negative = inhibition) at 10uM” value was -4.87%.

With `CCC1(CC)NC(=O)N(CC(=O)OCC(=O)Nc2ccc(OC(F)(F)F)cc2)C1=O`, the “hERG current change (%, negative = inhibition) at 10uM” value was -25.2%.

In the case of `O=C1NC(=O)[C@]2(Cc3ccccc3N3CCN(c4ccccc4)CC32)C(=O)N1Cc1ccccc1` (stereo partly shown), the “hERG current change (%, negative = inhibition) at 10uM” value is reported as -3.82%.

Consider `Cc1c(/C=C/C(=O)c2cccs2)cnn1C`, for which the “hERG current change (%, negative = inhibition) at 10uM” value was -0.723%.

Turning to `Nc1cccc2c1C(=O)N(C(=O)c1cccc(S(=O)(=O)N3CCCCCC3)c1)C2=O`, the “hERG current change (%, negative = inhibition) at 10uM” value is recorded as -9.14%.

Take `Cc1ccc(-c2nnc3sc(CCc4ccccc4)nn23)cc1`: the “hERG current change (%, negative = inhibition) at 10uM” value is reported as 6.39%.

`O=C(O)COc1ccccc1/C=C1\SC(=S)N(c2cccnc2)C1=O`: the “hERG current change (%, negative = inhibition) at 10uM” value is on record as -10.1%.

On to `COc1ccc(C(CCN2CCCC(C)C2)c2c(OC)cc(OC)c3c(C)cc(=O)oc23)cc1` (stereo not shown), for which the “hERG current change (%, negative = inhibition) at 10uM” value is given as -74.3%.

In the case of `COc1ccc(CCN2C(=O)C3C4C=CC(C3C2=O)C2C(=O)N(CCc3ccc(OC)c(OC)c3)C(=O)C42)cc1OC` (stereo not shown), the “hERG current change (%, negative = inhibition) at 10uM” value was -20.2%.

In the case of `COc1ccc(CC2C(=O)N(C)C(=O)N(C)C2=O)c(OC)c1`, the “hERG current change (%, negative = inhibition) at 10uM” value worked out at 19.6%.

Take `CN1CCN(c2ccc(C(F)(F)F)cc2NC(=O)Nc2ccccc2)CC1`: the “hERG current change (%, negative = inhibition) at 10uM” value was -17.2%.

As for `COc1cccc(CNCc2cc(OC)cc(OC)c2)c1.O=C(O)C(=O)O`, the “hERG current change (%, negative = inhibition) at 10uM” value is recorded as -12.6%.

Take `O=S(=O)(c1ccc(F)cc1)c1nc(-c2ccco2)oc1Nc1ccc(F)cc1`: the “hERG current change (%, negative = inhibition) at 10uM” value is given as -18.8%.

With `CCc1nc(NCCC(C)C)c(C#N)c2c1CCCC2`, the “hERG current change (%, negative = inhibition) at 10uM” value is 23.4%.

On to `CCc1ccc(C2=NNC(=Nc3c(C)n(C)n(-c4ccccc4)c3=O)SC2)cc1`, for which the “hERG current change (%, negative = inhibition) at 10uM” value was 34.4%.

Turning to `O=C(CN1C(=O)c2ccccc2C1=O)OCC(=O)N1CCc2ccccc2C1`, the “hERG current change (%, negative = inhibition) at 10uM” value was -17.2%.

For the molecule `C=CCNc1nc2c(c(=O)[nH]c(=O)n2C)n1CCOc1ccccc1`, the “hERG current change (%, negative = inhibition) at 10uM” value is recorded as -29.6%.

Take `COc1cccc(NC(=O)CN(C)C(=O)c2ccc(NS(=O)(=O)c3ccc(F)cc3)cc2)c1`: the “hERG current change (%, negative = inhibition) at 10uM” value is recorded as -7.97%.

As to `O=C(O)CCc1nc2cc(Cl)ccc2n(Cc2ccccc2)c1=O`, the “hERG current change (%, negative = inhibition) at 10uM” value is on record as 22.2%.

Consider `CCOc1ccc(C(=O)NC2CCN(C(=O)N3CCCC3)CC2)cc1`, for which the “hERG current change (%, negative = inhibition) at 10uM” value stood at 2.08%.

In the case of `Cc1[nH]c2ccccc2c1-c1nc(N)sc1C`, the “hERG current change (%, negative = inhibition) at 10uM” value is recorded as 19.7%.

Turning to `Cc1c(Cl)cccc1NC(=S)NCC1COc2ccccc2O1` (stereo not shown), the “hERG current change (%, negative = inhibition) at 10uM” value was determined as 11.9%.

As to `N#Cc1ccc(C2=CC(=O)C[C@H](c3ccc(Cl)cc3)C2)cc1`, the “hERG current change (%, negative = inhibition) at 10uM” value is given as -71.9%.

For the molecule `COc1ccc(OC)c2sc(NC(=O)C3CC3)nc12`, the “hERG current change (%, negative = inhibition) at 10uM” value is -5.76%.

For the molecule `CCOC(=O)Cn1c(=NC(=O)c2cccs2)sc2cc(C(=O)OC)ccc21`, the “hERG current change (%, negative = inhibition) at 10uM” value is 17.4%.

The values above are taken from article PMC4336329 (PLoS ONE, 2015).
